# PubChem BioAssay AID1508642 (National Center for Advancing Translational Sciences (NCATS), 2021)
# In all, about 43,000 compounds went through this assay and about 200 (0.47%) were called active. Not shown: some 12% with an inconclusive outcome. The call rests on the fitted dose curve; in most records, active means well fitted cell-killing curve with a large enough effect; inconclusive means small, poorly fitted or top-dose-only effect, or effect the other way; inactive means flat fitted curve, though single readings scatter. The list shows a part of the results.
# Assay: Cell viability qHTS assay in S16 Pmp22-F2sN cells; further: nearly all actives have a fitted effect of over 65% in size
# Details: S16 Pmp22-F2sN Schwann cells (luciferase reporters placed in the Pmp22 gene) viability, CellTiter-Glo, 24 h; series mostly up to 57.5 µM; activity change, negative = cytotoxicity: at the top concentration
# Summary of the method: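 CellTiter-Glo counter-screen, qHTS, 1536-well. Cells: S16(c9) Pmp22-F2sN, 500-1,000/well in DMEM + 10% FBS. Cpd 23 nL pin transfer, 24 h, 37C/5% CO2. Read: luminescence, CCD imager.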
# On the % scale 0 is the no-effect control and ±100 the full control effect.
row,SMILES,"activity change, negative = cytotoxicity"
1,O=C(NCC(c1cccnc1)N1CCc2ccccc2C1)C(=O)Nc1ccc(F)cc1F (configuration not stated),inactive: -14.2%
2,Cc1cccc(-c2nc(C)c(CCNC(=O)c3cccs3)s2)c1,inactive: -0.344%
3,CC(C)c1ccc(NC(=O)CCNS(=O)(=O)c2ccc3c(c2)oc(=O)n3C)cc1,inactive: -2.62%
4,Cc1ccc(-n2ncc(C(=O)N3CCN(C(=O)c4ccco4)CC3)c2C2CCN(C(=O)OC(C)(C)C)CC2)cc1,inactive: -8.83%
5,COC(=O)c1nnn(-c2ccc(Cl)cc2)c1C(=O)OC,inactive: -5.17%
6,O=C(CCS(=O)(=O)c1nc(-c2ccc3c(c2)OCO3)cc(C(F)(F)F)n1)Nc1ccc(F)cc1F,inactive: 1.62%
7,O=C(c1ccc2c(c1)N(Cc1cccc(Cl)c1)C(=O)c1ccccc1S2(=O)=O)N1CCCCCC1,inactive: -14.4%
8,Cc1cccc(CCNC(=O)c2nn(C)c3c2CSc2ccccc2-3)c1,inactive: 1.63%
9,O=C(CSc1oc(-c2ccc(F)cc2)nc1S(=O)(=O)c1ccc(Cl)cc1)c1ccccc1,inactive: -1.42%
10,COc1cccc(-c2cn3c(n2)sc2cc(C(=O)NCCC4=CCCCC4)ccc23)c1,inactive: -14.8%
11,COc1ccc(Cl)cc1NC(=O)NCc1noc2ccccc12,inactive: -4.98%
12,Cc1ccc2c(c1)N(C(=O)N1CCC(C(=O)NCc3cccs3)CC1)CC(C)O2 (configuration not stated),inactive: -1.52%
13,COc1ccc(CNC(=O)c2cc3c(=O)[nH]c4ccccc4c3n2C)c(OC)c1,inactive: -0.197%
14,Cc1cccc(N(CC(=O)NCCSc2ccc(Cl)cc2)S(C)(=O)=O)c1C,inactive: 3.35%
15,Cc1ccc(-c2c(C(=O)N(C)Cc3ccccc3)oc(=O)c3ccccc23)cc1,inactive: 24%
16,O=C(CSc1ccccc1)NCc1ccc2c(c1)CCN2C(=O)c1ccc(F)cc1,inactive: 4.63%
17,O=C(Cc1ccccc1)N(Cc1cccnc1)c1nc2ccc(F)cc2s1,inactive: -22.1%
18,COc1ccc(CNC(=O)c2cc3c(=O)n(C)c4ccccc4c3n2C)cc1,inactive: -4.84%
19,COCCNC(=O)c1nn(-c2ccc(Cl)cc2)nc1CO,inactive: -0.299%
20,CCc1ccc(CNC(=O)CCCN2C(=O)c3cccnc3Oc3ccc(Cl)cc32)cc1,inactive: -21.5%
21,O=C(COc1ccccc1)Nc1nnc(S(=O)(=O)N2CCCCCC2)s1,inactive: 5.22%
22,CCOc1cc(C2CC(=O)Nc3nc(SCc4ccccc4)[nH]c(=O)c32)ccc1O (configuration not stated),inactive: -0.0544%
23,O=C(Nc1cccc2cccnc12)c1ccc(F)cc1,inactive: -0.45%
24,CCc1ccc2oc(-c3ccc(NC(=O)c4cc(OC)c(OC)c(OC)c4)cc3)nc2c1,inactive: 1.24%
25,CCOC(=O)c1ccc(N2C(=O)c3[nH]nc(-c4ccc(OCC)cc4)c3C2c2ccc(OC)cc2OC)cc1 (configuration not stated),inactive: 11%

row,SMILES,"activity change, negative = cytotoxicity"
1,CC(C)c1ccccc1NC(=O)CN1C(=O)c2cccc3cccc1c23,inactive: -7.93%
2,CCC(=O)Nc1ccc2nc(SCc3ccc(C)cc3)sc2c1,inactive: -2.49%
3,Cc1nc(N2CCCC2)c2c(C(=O)N3CCN(c4cccc(C)c4C)CC3)c(C)oc2n1,inactive: -12.8%
4,CC(C)c1cc(-c2nc(-c3ccccc3)no2)n[nH]1,inactive: 1.96%
5,CN(CC(=O)Nc1ccccc1Cl)S(=O)(=O)c1ccc(C(=O)N2CCOCC2)s1,inactive: -0.142%
6,COc1ccc(S(=O)(=O)N2CCN(Cc3ccc4c(c3)OCO4)CC2)cc1OC,inactive: 5.45%
7,CCCSCCCNC(=O)c1ccc2c(c1)nc1n2CCCCC1,inactive: 2.83%
8,Cc1ccc(Nc2cc(C)c(C#N)c3nc4ccccc4n23)cc1Cl,inactive: 5.45%
9,O=C(CN1CCSc2ccccc21)N1CCN(c2cccc(Cl)c2)CC1,inactive: -1.49%
10,COC(=O)c1cnn(-c2ccc(C(=O)Nc3ccc(C(C)=O)cc3)cc2)c1N,inactive: 1.09%
11,Cc1ccc(-n2ncc3c(NC4CCCCC4)ncnc32)cc1,inactive: 19.4%
12,Cc1ccc(Cc2nc3ccccc3nc2SCC(=O)Nc2cccc(C(F)(F)F)c2)cc1,inactive: 14.5%
13,CC(C)(C)c1ccc(S(=O)(=O)NCc2nc3cccnc3n2Cc2ccccc2Cl)cc1,inactive: -19.9%
14,Cc1nn(CC(=O)NCCc2ccccc2Cl)c(=O)c2nn(-c3ccccc3)c(C)c12,inactive: -9.3%
15,COc1ccc(CNCc2c(C(=O)O)c(C)n(Cc3ccc(Cl)cc3)c2C)c(OC)c1,inactive: -17.7%
16,Cc1ccc2c(c1)c1c(c(=O)n(-c3ccccc3C)c(=O)n1CC(=O)NCCC1=CCCCC1)n2C,inactive: 22.2%
17,O=C1COc2cc(S(=O)(=O)CCC(=O)N3CCN(c4cccc(Cl)c4)CC3)c(Cl)cc2N1,inactive: -3.66%
18,CCC(C)NC(=O)c1sc2nc(C)c(C(=O)Nc3ccc(C)cc3C)c(-c3ccc(Cl)cc3)c2c1N (configuration not stated),inactive: 3.17%
19,CCN(CCCNC(=O)c1cc2c(=O)n(CC)c3ccccc3c2s1)c1cccc(C)c1,inactive: 6.87%
20,Cc1ccccc1-c1nc(CS(=O)(=O)CC(=O)NC(C)c2ccccc2)c(C)o1 (configuration not stated),inactive: -2.11%
21,CCc1ccc(N2CCn3c2nc2c3c(=O)n(Cc3ccc(F)cc3)c(=O)n2C)cc1,inactive: 1.27%
22,COc1ccc2c(c1)c(=O)c(S(=O)(=O)c1ccc(C)c(C)c1)cn2CC(=O)Nc1ccccc1,inactive: -5.95%
23,Cc1ccc(-n2c3c(c(=O)[nH]c2=O)C(NC(=O)c2ccccc2F)(C(F)(F)F)C(=O)N3)cc1C (configuration not stated),inactive: -0.19%
24,Cc1ccc(CNc2ccc(-c3nc(-c4ccco4)no3)cc2[N+](=O)[O-])cc1,inactive: 0.756%
25,Cc1ccc(-c2cc(C(=O)O)n(Cc3ccccc3)n2)cc1,inactive: 4.12%

row,SMILES,"activity change, negative = cytotoxicity"
1,Cc1ccc(S(=O)(=O)c2nc(-c3ccccc3)oc2N2CCN(c3ccccc3)CC2)cc1,inactive: -3.35%
2,COc1ccc(Cl)cc1NC(=O)CN(c1cc(C)cc(C)c1)S(=O)(=O)c1c(C)n[nH]c1C,inactive: 1.11%
3,COc1cc(-c2noc(C3CC(=O)N(c4ccc5c(c4)OCCO5)C3)n2)cc(OC)c1OC (configuration not stated),inactive: -6.22%
4,O=C(Nc1cc(F)ccc1F)C1COc2ccccc2C1 (configuration not stated),inactive: -1.78%
5,COc1ccc(NS(=O)(=O)c2ccc(NC(=O)N3CCCC3)cc2)cc1,inactive: -21.7%
6,CCOC(=O)c1cc(-c2ccc(C)cc2)nn1Cc1ccccc1,inactive: -8.65%
7,Cc1ccc(-c2cn3c(n2)sc2cc(C(=O)NCCCc4ccccc4)ccc23)cc1,inactive: 0.295%
8,Cc1ccc(C2=Nc3ccccc3NC(c3ccncc3)=N2)cc1,inactive: -3.19%
9,CNS(=O)(=O)c1cn(CC(=O)Nc2ccc(C)cc2C)cc1S(=O)(=O)NC,inactive: 0.213%
10,CCc1ccccc1NC(=O)C1CCCN(S(=O)(=O)c2cccc3nsnc23)C1 (configuration not stated),inactive: 2.11%
11,COc1ccc(CCNC(=O)CCc2c(C)nc3c(c(C)nn3-c3ccc(C)cc3)c2C)c(OC)c1,inactive: 18.2%
12,COc1cc(C2c3c(-c4ccccc4O)n[nH]c3C(=O)N2Cc2ccncc2)ccc1O (configuration not stated),inactive: -19.6%
13,Cc1nc2ccc(S(=O)(=O)CCC(=O)Nc3ccc(F)cc3C)cc2s1,inactive: 16%
14,CC(C)c1ccc(NC(=O)CCCc2nc(-c3ccc(Cl)cc3)no2)cc1,inactive: -15.4%
15,COc1cc(Cl)c(NC(=O)C2CCN(S(=O)(=O)c3c(C)noc3/C=C/c3ccccc3F)CC2)c(OC)c1,inactive: 3.7%
16,Cc1ccccc1NC(=O)c1ccccc1NC(=O)c1ccccc1Cl,inactive: 22%
17,Cc1cc(OCCCSc2nc(-c3ccc(C(C)(C)C)cc3)nc3cc(=O)[nH]n23)ccc1Cl,inactive: 1.81%
18,CCc1ccc(NC(=O)CSc2ccc3nnc(CCNS(=O)(=O)c4ccc(OC)cc4)n3n2)cc1,inactive: -0.395%
19,CCc1ccc(NC(=O)C2CCN(c3cc(C)nc4c(-c5ccc(Cl)cc5)c(C)nn34)CC2)cc1,inactive: 3.84%
20,O=C(Cn1cnc2c(nc3n2CCCCC3)c1=O)Nc1ccc(F)cc1,inactive: 9.24%
21,CCCN(CCC)CCCNC(=O)Cn1cnc2onc(-c3ccc(F)cc3)c2c1=O,inactive: -5.1%
22,O=C(CCCn1c(=O)[nH]c2ccccc2c1=O)NCc1ccccc1Cl,inactive: -7.81%
23,COc1cccc(NC(=O)CSc2nc3ccc(NC(=O)c4ccco4)cc3s2)c1,inactive: 3.27%
24,CCc1nn(CC(=O)NCCCOC)c(=O)c2cc3occc3n12,inactive: 4.38%
25,COc1ccccc1NC(=O)Cn1c(=O)n(Cc2ccco2)c(=O)c2oc3ccccc3c21,inactive: -0.3%

row,SMILES,"activity change, negative = cytotoxicity"
1,Cc1ccc2c(=O)cc(C(=O)Nc3c(C)n(C)n(-c4ccccc4)c3=O)oc2c1C,inactive: -20.6%
2,CCC(=O)NC1CC(=O)N(c2ccc3c(c2)OCCO3)C1 (configuration not stated),inactive: 1.68%
3,COC(=O)C(C)Sc1nnc2cc(C)c3cc(C)cc(C)c3n12 (configuration not stated),inactive: -0.73%
4,CN(C(=O)c1nc(-c2cccc(F)c2)n2c1CCCCC2)c1ccccc1F,inactive: -0.238%
5,Cc1cc(C)c2c(-n3cccc3)c(C(=O)NCCc3ccc(Cl)cc3)sc2n1,inactive: 2.76%
6,CCCCNC(=O)C1CCN(C(=O)N2CC(C)Oc3ccc(Cl)cc32)CC1 (configuration not stated),inactive: 0.733%
7,CCOc1ccccc1-n1c(C)nc2cc(C(=O)O)ccc21,inactive: -20.2%
8,Cc1cc(=O)[nH]c2nnc(SCc3ccc(Cl)c(Cl)c3)n12,inactive: -7.76%
9,COc1cccc(NC(=O)CSc2cc(=O)n(C)c3ccc(Cl)cc23)c1,inactive: 20.4%
10,CCCCN(C)CCCNC(=O)CN1C(=O)COc2ccc(S(=O)(=O)N3CCC(C)CC3)cc21,inactive: 24.9%
11,CCOC(=O)N1CCc2c(sc(NCc3sccc3C)c2C(=O)Nc2cc(OC)ccc2OC)C1,inactive: 0.541%
12,N#C/C(=C\c1ccc(F)cc1)C(=O)NCC1CCCO1 (configuration not stated),inactive: 0.509%
13,Cn1cnc(S(=O)(=O)N2CCCC(C(=O)NCc3ccccc3Cl)C2)c1 (configuration not stated),inactive: 18.2%
14,Cc1ccc(CCNC(=O)C(CC(C)C)NS(=O)(=O)c2ccc3c(c2)oc(=O)n3C)cc1 (configuration not stated),inactive: -3.08%
15,Cc1cccc(C(=O)N2CCc3cc(CNC(=O)c4ccnn4C)ccc32)c1,inactive: -8.71%
16,CCOc1ccccc1NC(=O)Cc1coc2c(C)c(C)ccc12,inactive: -10%
17,CCOc1ccccc1NC(=O)CN1C(=O)COc2ccc(S(=O)(=O)N3CCCCCC3)cc21,inactive: 4.39%
18,COC(=O)c1ccc(NC(=O)CCc2c(C)nc3c(c(C)nn3-c3ccc(C)cc3)c2C)cc1,inactive: -0.189%
19,COc1ccc(CCNc2nc(-c3ccc(C)cc3)cc(C(F)F)n2)cc1OC,inactive: 14.9%
20,Cc1cccc(NC(=O)c2oc3c(c2C)-c2[nH]ncc2CC3)c1C,inactive: 2.11%
21,CCOC(=O)C1CCN(c2c(C(=O)c3ccc(OCC)cc3)cnc3ccc(OC)cc23)CC1,inactive: -23.3%
22,Oc1c(C(c2ccccc2F)N2CCOCC2)sc2nc(-c3ccco3)nn12 (configuration not stated),inactive: 16.3%
